Measured values as given in the supplement of paper PMC10126150.
Values marked as one replicate rest on one cluster of the flow cell; about a third of the high ones do not repeat.

System: ATP
Assay: switch fluorescence ratio, 500 uM ATP over buffer (Cy3 cluster intensity, sum of 5 cycles each) (fold (ratio)); higher = stronger signal-on switching upon ATP binding; sequences stand for … in TCGTCGGCAGCGTCAGATGTGTATAAGAGACAGTTTTTTTTTTTTTTTTTTTTTTTTT…TC
Conditions: aptamer strand: ATP DNA aptamer (quencher-CACCTGGGGGAGTATTGCGGAGGAAGG + anchor), 100 nM annealed; ATP concentration: 500 uM; one replicate
How it was run: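 Imaging in selection buffer was followed by imaging after 15 min with 500 uM ATP at 22 °C, for Cy3-labelled switching-strand clusters annealed to 100 nM quencher-labelled ATP aptamer on a modified Illumina MiSeq flow-cell. Five of these buffer/ATP cycles ran, separated by NaOH stripping and re-annealing. The fluorescence ratio per cluster is summed target-cycle over summed buffer-cycle Cy3 intensity, averaged per switch-domain sequence; clusters outside 100-1000 RFU were removed.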
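Further: ATP exposure 15 min at 22 °C before imaging.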

AAAGGTTTCT
switch fluorescence ratio: 1.12

ATTCAGGACT
switch fluorescence ratio: 0.991

TTTTTCCATG
switch fluorescence ratio: 0.977

GTTATCTTTT
switch fluorescence ratio: 0.959

GAGGGCTTTA
switch fluorescence ratio: 1.01

CGGCTTCTAA
switch fluorescence ratio: 0.953

CTTTGGCCTA
switch fluorescence ratio: 1.02

AGGAGTCTA
switch fluorescence ratio: 1.01

TCGGAATGTA
switch fluorescence ratio: 0.994

AATGGGGGT
switch fluorescence ratio: 0.983

ATGATCGACT
switch fluorescence ratio: 1.03

ATGATTCGAG
switch fluorescence ratio: 0.985

ACCCGTCGCT
switch fluorescence ratio: 1.07

GTCTGTAGGT
switch fluorescence ratio: 1.02

GACATTTCAG
switch fluorescence ratio: 1

CGATCTGAGT
switch fluorescence ratio: 0.986

TACGGCCTTT
switch fluorescence ratio: 1.03

TGACCGCCTG
switch fluorescence ratio: 1.03

GTCGGCCGAA
switch fluorescence ratio: 0.997

GGGTGTATGC
switch fluorescence ratio: 0.969

TTATGGTAAA
switch fluorescence ratio: 1

TTCTTCGTCA
switch fluorescence ratio: 1.01

CAGCAAAT
switch fluorescence ratio: 1.02

TTAAGATGAT
switch fluorescence ratio: 1.2

TGTGGAGGTA
switch fluorescence ratio: 0.971

AAGGTTAAAC
switch fluorescence ratio: 0.951

AGTGTCAAAT
switch fluorescence ratio: 1.01

CAATCGTTCG
switch fluorescence ratio: 1.02

CCATGCTTGA
switch fluorescence ratio: 0.983

TTCTCATATT
switch fluorescence ratio: 0.992

GGGCTGAATA
switch fluorescence ratio: 0.974

GGGTTGTGCA
switch fluorescence ratio: 0.989

TGATTAGCGA
switch fluorescence ratio: 0.993

GCGACAAAAG
switch fluorescence ratio: 1.1

CGACACCATA
switch fluorescence ratio: 1.34

AGCCTGGACC
switch fluorescence ratio: 1.04

TCGGCGTCTA
switch fluorescence ratio: 0.988

TCTAGATTTT
switch fluorescence ratio: 1.03

GTCTATCCGA
switch fluorescence ratio: 0.99

GCGCTTCTGG
switch fluorescence ratio: 1.02

TTGGCCTAGC
switch fluorescence ratio: 1.01

CCTCTCTGGG
switch fluorescence ratio: 0.993

TGACTGTGGT
switch fluorescence ratio: 0.981

GCCAGGCCTA
switch fluorescence ratio: 0.997

ATTAGGTCAC
switch fluorescence ratio: 1.01

CCTGGGGTA
switch fluorescence ratio: 0.995

TTCTTAGCCC
switch fluorescence ratio: 0.893

TAGATAACCC
switch fluorescence ratio: 0.963

CTCATTGCAG
switch fluorescence ratio: 0.987

CGGCCTCCTT
switch fluorescence ratio: 1.05

CAATTCACGT
switch fluorescence ratio: 1.06

GTAGGATGTC
switch fluorescence ratio: 0.985

ATGCGGGTCT
switch fluorescence ratio: 0.989

TGGGCGGCCC
switch fluorescence ratio: 2.08

GTCGCCCTTC
switch fluorescence ratio: 1.02

GAATTCGTCT
switch fluorescence ratio: 0.989

TGTCACAGAC
switch fluorescence ratio: 1.03

TTATGTCTGA
switch fluorescence ratio: 1.02

CCAGAGTTGG
switch fluorescence ratio: 1

AATGACCCCG
switch fluorescence ratio: 1.04

CGTTATCGA
switch fluorescence ratio: 0.987

CGGAATGTAC
switch fluorescence ratio: 1.89

ATTAATAACG
switch fluorescence ratio: 1

ACGGTAGGGG
switch fluorescence ratio: 1.19

ATGCCGATTA
switch fluorescence ratio: 0.98

AACGCAGGTC
switch fluorescence ratio: 1.24

AGAGATAATC
switch fluorescence ratio: 1.02

AGATATATAA
switch fluorescence ratio: 0.975

CTAGTCGGTA
switch fluorescence ratio: 1

ATTGGCTTCC
switch fluorescence ratio: 2.59

TCTAGGGAGC
switch fluorescence ratio: 0.89

GTGTATTTTC
switch fluorescence ratio: 0.985

TCAATTGGTA
switch fluorescence ratio: 1.03

CCATTTAAAG
switch fluorescence ratio: 1

GGCTTTGACA
switch fluorescence ratio: 0.945

ATTTGCTGGG
switch fluorescence ratio: 0.975

CTTCGTTGT
switch fluorescence ratio: 1.06

GGGAAGGAAA
switch fluorescence ratio: 1.05

TTGTCCGAGA
switch fluorescence ratio: 1.04

TATGCTCCAA
switch fluorescence ratio: 1.02

TCGTGATGGG
switch fluorescence ratio: 1.06

GCCAAGGTAT
switch fluorescence ratio: 0.948

ACAACCGCCG
switch fluorescence ratio: 1.25

CGAGAGCGGC
switch fluorescence ratio: 1.1

CATATTACGC
switch fluorescence ratio: 0.998

TATCGGCCTT
switch fluorescence ratio: 1.06

TGAATGGAA
switch fluorescence ratio: 0.997

TTCCATACGT
switch fluorescence ratio: 1.04

ATCGAGGTAA
switch fluorescence ratio: 1.03

AGGCATAATC
switch fluorescence ratio: 1.11

CGAAATTTAG
switch fluorescence ratio: 0.998

CTTTCTGGCG
switch fluorescence ratio: 0.945

TCATTTTGGT
switch fluorescence ratio: 1.05

CCTAATTCAG
switch fluorescence ratio: 1.02

GCGATTATCA
switch fluorescence ratio: 0.978

CTTAGATCAG
switch fluorescence ratio: 1

TTATGCCAAC
switch fluorescence ratio: 0.986

TCTTTGAGTG
switch fluorescence ratio: 0.957

ACCTGCCCAC
switch fluorescence ratio: 1.16

AGCTATTACG
switch fluorescence ratio: 1.15

TTTGCACCAC
switch fluorescence ratio: 1.07

AATAGGCCGG
switch fluorescence ratio: 0.976

TGGTCTTGTT
switch fluorescence ratio: 0.963

GGAGGGATTA
switch fluorescence ratio: 0.98

CGCGGTTCGA
switch fluorescence ratio: 1.04

ATACTAGGGT
switch fluorescence ratio: 1.02

ATTCGGGCTG
switch fluorescence ratio: 1.05

TTGCAGGATT
switch fluorescence ratio: 1.04

ATAGGTATTG
switch fluorescence ratio: 0.988

CCTTGCACGA
switch fluorescence ratio: 2.02

CCTGTGACGG
switch fluorescence ratio: 0.994

TCCAAGGCTC
switch fluorescence ratio: 1.08

TATAGGGACG
switch fluorescence ratio: 1.12

GACTGACCCA
switch fluorescence ratio: 1.13

GTGTAAGTGG
switch fluorescence ratio: 0.986

GCTCGCCGCA
switch fluorescence ratio: 1.02

TGCAAATGT
switch fluorescence ratio: 1.01

TTCTGCTCG
switch fluorescence ratio: 0.983

AATCTAGGCA
switch fluorescence ratio: 0.985

ACAGGACGG
switch fluorescence ratio: 1.1

GTTGAGTTAG
switch fluorescence ratio: 0.998

CGCAGCAGCC
switch fluorescence ratio: 3.45

ATTTTGGACT
switch fluorescence ratio: 1.04

AGAGACAGCG
switch fluorescence ratio: 0.862

TTCGTACGT
switch fluorescence ratio: 1.04

TACTTTGTCA
switch fluorescence ratio: 1.01

CAGGCTCGTA
switch fluorescence ratio: 1.04

CACGATACCG
switch fluorescence ratio: 1.19

TACGAGGTC
switch fluorescence ratio: 1.02

AGCTTGCTGC
switch fluorescence ratio: 0.976

TACGTATCGA
switch fluorescence ratio: 1.09

GATATCTTTA
switch fluorescence ratio: 1.01

TGGATAGAGA
switch fluorescence ratio: 0.991

GACCACGGTG
switch fluorescence ratio: 1.52

TCGGCTGGA
switch fluorescence ratio: 1.03

CGGTAACCTG
switch fluorescence ratio: 1.01

TAAATTCAGC
switch fluorescence ratio: 1

GAATGGCGCT
switch fluorescence ratio: 0.942

CATGGGTTGA
switch fluorescence ratio: 1.08

CATCGTAGGA
switch fluorescence ratio: 1.02

CAAGTAACGC
switch fluorescence ratio: 1.05

GTAACTGGGG
switch fluorescence ratio: 0.997

CGTACCGCGC
switch fluorescence ratio: 1.45

GATGATAGTT
switch fluorescence ratio: 0.923

ATTCTGAACG
switch fluorescence ratio: 1.08

GGAGGCCTGG
switch fluorescence ratio: 1.04

CGCCGCAGTT
switch fluorescence ratio: 5.37

AGAGTAACAT
switch fluorescence ratio: 0.979

TAGAAGCAAG
switch fluorescence ratio: 1.06

TTCTGGGATT
switch fluorescence ratio: 1.01

GGTATGAGTC
switch fluorescence ratio: 0.965

CGAGTGACCT
switch fluorescence ratio: 1.09

TTGTAAAGCG
switch fluorescence ratio: 0.978

GCAAAACGCG
switch fluorescence ratio: 1.01

TAAATTGAAA
switch fluorescence ratio: 1.02

AACGAAGTCT
switch fluorescence ratio: 1.01

GCCAACGAGC
switch fluorescence ratio: 1.07
